Measured values as given in the supplement of paper PMC8728848.
Some of the results follow.

Experiments:
Test in all cases: glycan array binding signal (z-score within array); higher = stronger binding
Conditions in all cases: glycan notation: IUPAC condensed, linker removed
[1] = target: Fuc(a1-2)[Gal(a1-3)]Gal(b1-4)GlcNAc(b1-2)Man(a1-3)[Fuc(a1-2)[Gal(a1-3)]Gal(b1-4)GlcNAc(b1-2)Man(a1-6)]Man(b1-4)GlcNAc(b1-4)[Fuc(a1-6)]GlcNAc
How it was run: (§1)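 Glycan array data came from 3228 arrays in the Consortium for Functional Glycomics database, and only arrays with an available protein sequence were kept. Glycan names were put into IUPAC-condensed notation, and columns mapping to the same glycan were averaged. The binding signal is a within-array Z-score, averaged across arrays of one protein sequence run at different concentrations or buffers and across linkers. A negative Z-score can be read as non-binding.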

[2] = target: Fuc(a1-2)[Gal(a1-3)]Gal(b1-4)GlcNAc(b1-3)GalNAc
How it was run: as §1

[3] = target: Fuc(a1-2)[Gal(a1-3)]Gal(b1-4)GlcNAc(b1-3)[Fuc(a1-2)[Gal(a1-3)]Gal(b1-4)GlcNAc(b1-6)]GalNAc
How it was run: as §1

[4] = target: Fuc(a1-2)[Gal(a1-3)]Gal(b1-4)GlcNAc(b1-6)GalNAc
How it was run: as §1

[5] = target: Fuc(a1-2)[Gal(a1-3)]Gal(b1-4)[Fuc(a1-3)]Glc
How it was run: as §1

[6] = target: Fuc(a1-2)[Gal(a1-3)]Gal(b1-4)[Fuc(a1-3)]GlcNAc
How it was run: as §1

[7] = target: Fuc(a1-2)[Gal(a1-3)]Gal(b1-4)[Fuc(a1-3)]GlcNAc(b1-3)GalNAc
How it was run: as §1

[8] = target: Fuc(a1-2)[Gal(a1-4)]Gal(b1-4)GlcNAc
How it was run: as §1

[9] = target: Fuc(a1-2)[GalNAc(a1-3)]Gal
How it was run: as §1

[10] = target: Fuc(a1-2)[GalNAc(a1-3)]Gal(b1-3)GalNAc(a1-3)[Fuc(a1-2)]Gal(b1-4)GlcNAc
How it was run: as §1

[11] = target: Fuc(a1-2)[GalNAc(a1-3)]Gal(b1-3)GalNAc(b1-3)Gal(a1-4)Gal(b1-4)Glc
How it was run: as §1

[12] = target: Fuc(a1-2)[GalNAc(a1-3)]Gal(b1-3)GlcNAc
How it was run: as §1

[13] = target: Fuc(a1-2)[GalNAc(a1-3)]Gal(b1-3)GlcNAc(b1-2)Man(a1-3)[Fuc(a1-2)[GalNAc(a1-3)]Gal(b1-3)GlcNAc(b1-2)Man(a1-6)]Man(b1-4)GlcNAc(b1-4)GlcNAc
How it was run: as §1

[14] = target: Fuc(a1-2)[GalNAc(a1-3)]Gal(b1-3)GlcNAc(b1-2)Man(a1-3)[Fuc(a1-2)[GalNAc(a1-3)]Gal(b1-3)GlcNAc(b1-2)Man(a1-6)]Man(b1-4)GlcNAc(b1-4)[Fuc(a1-6)]GlcNAc
How it was run: as §1

[15] = target: Fuc(a1-2)[GalNAc(a1-3)]Gal(b1-3)GlcNAc(b1-3)GalNAc
How it was run: as §1

[16] = target: Fuc(a1-2)[GalNAc(a1-3)]Gal(b1-3)GlcNAc(b1-6)GalNAc
How it was run: as §1

[17] = target: Fuc(a1-2)[GalNAc(a1-3)]Gal(b1-4)Glc
How it was run: as §1

[18] = target: Fuc(a1-2)[GalNAc(a1-3)]Gal(b1-4)GlcNAc
How it was run: as §1

[19] = target: Fuc(a1-2)[GalNAc(a1-3)]Gal(b1-4)GlcNAc(b1-2)Man
How it was run: as §1

[20] = target: Fuc(a1-2)[GalNAc(a1-3)]Gal(b1-4)GlcNAc(b1-2)Man(a1-3)[Fuc(a1-2)[GalNAc(a1-3)]Gal(b1-4)GlcNAc(b1-2)Man(a1-6)]Man(b1-4)GlcNAc(b1-4)GlcNAc
How it was run: as §1

[21] = target: Fuc(a1-2)[GalNAc(a1-3)]Gal(b1-4)GlcNAc(b1-2)Man(a1-3)[Fuc(a1-2)[GalNAc(a1-3)]Gal(b1-4)GlcNAc(b1-2)Man(a1-6)]Man(b1-4)GlcNAc(b1-4)[Fuc(a1-6)]GlcNAc
How it was run: as §1

[22] = target: Fuc(a1-2)[GalNAc(a1-3)]Gal(b1-4)GlcNAc(b1-3)Gal(b1-4)GlcNAc
How it was run: as §1

[23] = target: Fuc(a1-2)[GalNAc(a1-3)]Gal(b1-4)GlcNAc(b1-3)Gal(b1-4)GlcNAc(b1-3)Gal(b1-4)GlcNAc
How it was run: as §1

[24] = target: Fuc(a1-2)[GalNAc(a1-3)]Gal(b1-4)GlcNAc(b1-3)GalNAc
How it was run: as §1

[25] = target: Fuc(a1-2)[GalNAc(a1-3)]Gal(b1-4)GlcNAc(b1-3)[Fuc(a1-2)[GalNAc(a1-3)]Gal(b1-4)GlcNAc(b1-6)]GalNAc
How it was run: as §1

[26] = target: Fuc(a1-2)[GalNAc(a1-3)]Gal(b1-4)GlcNAc(b1-6)GalNAc
How it was run: as §1

[27] = target: Fuc(a1-2)[GalNAc(a1-3)]Gal(b1-4)[Fuc(a1-3)]GlcNAc
How it was run: as §1

[28] = target: Fuc(a1-2)[GalNAc(a1-3)]Gal(b1-4)[Fuc(a1-3)]GlcNAc(b1-3)GalNAc
How it was run: as §1

[29] = target: Fuc(a1-2)[GalNAc(a1-4)]Gal(b1-4)GlcNAc
How it was run: as §1

[30] = target: Fuc(a1-2)[GalNAc(b1-3)]Gal
How it was run: as §1

Fuc(a1-3)GlcNAc = target: Fuc(a1-3)GlcNAc
How it was run: as §1

[31] = target: Fuc(a1-3)[Gal(b1-4)]Glc6S
How it was run: as §1

[32] = target: Fuc(a1-3)[Gal(b1-4)]GlcNAc
How it was run: as §1

[33] = target: Fuc(a1-3)[Gal(b1-4)]GlcNAc(b1-2)Man
How it was run: as §1

[34] = target: Fuc(a1-3)[Gal(b1-4)]GlcNAc(b1-2)Man(a1-3)[Fuc(a1-3)[Gal(b1-4)]GlcNAc(b1-2)Man(a1-6)]Man(b1-4)GlcNAc(b1-4)GlcNAc
How it was run: as §1

[35] = target: Fuc(a1-3)[Gal(b1-4)]GlcNAc(b1-2)Man(a1-3)[Fuc(a1-3)[Gal(b1-4)]GlcNAc(b1-2)Man(a1-6)]Man(b1-4)GlcNAc(b1-4)[Fuc(a1-6)]GlcNAc
How it was run: as §1

[36] = target: Fuc(a1-3)[Gal(b1-4)]GlcNAc(b1-3)Gal(b1-3)[Fuc(a1-4)]GlcNAc
How it was run: as §1

B1: GS14009A-pdi-495-27-495 (Parabacteroides distasonis) (protein)
chain: FEEVNTDPDSPTDVPTTNLLAYSLYYTSYRLYDRWFAMDEPMTFCGYASKMTYIDESRYNFRTGVQDTNWEYLYRILNNLKDIEKRATFNETPNMLNVSKVMQVHLMQVATDRWRDVPYTDAAKMTDGILQPKYDKQEDIYPGLLATLKEAADGFADGGSDDLGEGDLLFGGDIEKWQRYCNSMRLRLAMRISEVSPALAKETVEEVMGNPTKYPIMESNDDNAFFWWIGTDPNYYEPMADGYRTRKTEYCAADVIVDHMNTREDPRRSSYFQPTKESVEAGEPKYVGYTIGAKANAVASKYSIWGARFFTDLAGFSPYMRVAEPWFCVAEASMLGWNTGISAEDAYNKAVTYSMEENSVSAEDIADYLANAGKFTNDKKQIYYEEWVAMFKQGMEGWSLYRRTGVPDNLYPAPGRPANYSNHNVPPFRSPYPDKERNLNNANCAPFDAEVVDNLWGKQMWWDTRTGVH
**Q.** Which “glycan array binding signal (z-score)” value [1] does the source give for B1 here?
**A.** -0.563

**Q.** And the “glycan array binding signal (z-score)” value [2]?
**A.** -0.772

**Q.** And the “glycan array binding signal (z-score)” value [3]?
**A.** -0.176

**Q.** And the “glycan array binding signal (z-score)” value [4]?
**A.** 0.263

**Q.** What about the “glycan array binding signal (z-score)” value [5] of the same binder?
**A.** 1.15

**Q.** And the “glycan array binding signal (z-score)” value [6]?
**A.** -0.366

**Q.** What about the “glycan array binding signal (z-score)” value [7] of the same binder?
**A.** -0.109

**Q.** What about the “glycan array binding signal (z-score)” value [8] of the same binder?
**A.** 0.06

**Q.** And the “glycan array binding signal (z-score)” value [9]?
**A.** -0.525

**Q.** And the “glycan array binding signal (z-score)” value [10]?
**A.** -0.38

**Q.** What about the “glycan array binding signal (z-score)” value [11] of the same binder?
**A.** -0.149

**Q.** What about the “glycan array binding signal (z-score)” value [12] of the same binder?
**A.** -0.419

**Q.** What about the “glycan array binding signal (z-score)” value [13] of the same binder?
**A.** -0.206

**Q.** And the “glycan array binding signal (z-score)” value [14]?
**A.** 1.42

**Q.** What about the “glycan array binding signal (z-score)” value [15] of the same binder?
**A.** -0.101

**Q.** What about the “glycan array binding signal (z-score)” value [16] of the same binder?
**A.** -0.122

**Q.** And the “glycan array binding signal (z-score)” value [17]?
**A.** -0.418

**Q.** And the “glycan array binding signal (z-score)” value [18]?
**A.** -0.289

**Q.** And the “glycan array binding signal (z-score)” value [19]?
**A.** -0.26

**Q.** What about the “glycan array binding signal (z-score)” value [20] of the same binder?
**A.** 0.21

**Q.** What about the “glycan array binding signal (z-score)” value [21] of the same binder?
**A.** 2.8

**Q.** And the “glycan array binding signal (z-score)” value [22]?
**A.** -0.179

**Q.** And the “glycan array binding signal (z-score)” value [23]?
**A.** 0.016

**Q.** And the “glycan array binding signal (z-score)” value [24]?
**A.** -0.302

**Q.** What about the “glycan array binding signal (z-score)” value [25] of the same binder?
**A.** 0.062

**Q.** And the “glycan array binding signal (z-score)” value [26]?
**A.** -0.138

**Q.** And the “glycan array binding signal (z-score)” value [27]?
**A.** -0.201

**Q.** What about the “glycan array binding signal (z-score)” value [28] of the same binder?
**A.** 1.56

**Q.** And the “glycan array binding signal (z-score)” value [29]?
**A.** -0.532

**Q.** What about the “glycan array binding signal (z-score)” value [30] of the same binder?
**A.** -0.386

**Q.** What about the “glycan array binding signal (z-score)” value (Fuc(a1-3)GlcNAc) of the same binder?
**A.** -0.51

**Q.** And the “glycan array binding signal (z-score)” value [31]?
**A.** 0.408

**Q.** What about the “glycan array binding signal (z-score)” value [32] of the same binder?
**A.** -0.095

**Q.** And the “glycan array binding signal (z-score)” value [33]?
**A.** -0.201

**Q.** And the “glycan array binding signal (z-score)” value [34]?
**A.** -0.697

**Q.** And the “glycan array binding signal (z-score)” value [35]?
**A.** 0.393

**Q.** And the “glycan array binding signal (z-score)” value [36]?
**A.** -0.447
